This is one part of the list. The full chains were built here from the parent and the listed change. Values near 0.05 are background.
B1: TEV protease; numbered along this chain (parent)
chain: MGESLFKGPRDYNPISSSICHLTNESDGHTTSLYGIGFGPFIITNKHLFRRNNGTLVVQSLHGVFKVKDTTTLQQHLVDGRDMIIIRMPKDFPPFPQKLKFREPQREERICLVTTNFQTKSMSSMVSDTSCTFPSGDGIFWKHWIQTKDGQCGSPLVSTRDGFIVGIHSASNFTNTNNYFTSVPKNFMELLTNQEAQQWVSGWRLNADSVLWGGHKVFMVKPEEPFQPVKEATQL

Variants of: B1
Test: raw area under fraction-flipped curve 0-4 h after induction (AUC4h, not background-subtracted), DNA-recorder readout of cleavage of the substrate (dimensionless); higher = more cleavage of the substrate by the protease variant
Details: temperature: 34 °C; time window: 0-4 h after rhamnose induction
Procedure: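 In vivo DNA recorder in E. coli TOP10(DE3) ΔrhaA at 34 °C. Each TEVp single-site mutant (parent TEVp 0) is paired with a single-site variant of the 7-mer TEVs (canonical ENLYFQ|S). The substrate sits between flexible linkers in a Bxb1-sfGFP-TEVs-SsrA fusion, so cleavage stabilises Bxb1 and speeds flipping of a recombination array, read by NGS. The value is the raw area under the fraction-flipped curve over 0-4 h after rhamnose induction (AUC4h), with ≥20 reads per time point. It is not background-subtracted; inactive controls average about 0.047.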
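Note: Bxb1 expression induced with 0.2% (w/v) L-rhamnose at OD600 near 0.5, cultures sampled hourly, flipped fraction per protease–substrate barcode pair counted by paired-end Illumina sequencing.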

Row | Variant | area with substrate EALYFQS | area with substrate ECLYFQS | area with substrate EDLYFQS | area with substrate EELYFQS | area with substrate EFLYFQS | area with substrate EGLYFQS | area with substrate EHLYFQS | area with substrate EILYFQS | area with substrate ELLYFQS | area with substrate EMLYFQS | area with substrate EPLYFQS | area with substrate ERLYFQS | area with substrate ESLYFQS | area with substrate EVLYFQS | area with substrate EWLYFQS | area with substrate EYLYFQS | area with substrate EQLYFQS | area with substrate EKLYFQS | area with substrate ETLYFQS
1 | T114V | 0.118 | 0.0856 | 0.17 | 0.125 | 0.0812 | 0.0853 | 0.0781 | 0.0798 | 0.0936 | 0.0766 | 0.117 | 0.0991 | 0.0867 | 0.134 | 0.0971 | 0.114 |  |  | 
2 | T115W | 0.0943 | 0.145 |  |  | 0.0913 |  | 0.112 | 0.106 | 0.0802 |  | 0.0806 |  |  | 0.1 |  | 0.0837 | 0.112 |  | 
3 | N116E | 0.0805 | 0.11 | 0.123 | 0.114 |  | 0.106 |  | 0.0789 | 0.104 | 0.11 | 0.097 | 0.108 | 0.0983 | 0.1 | 0.0863 | 0.0925 | 0.132 | 0.0911 | 
4 | F117G | 0.103 | 0.109 | 0.104 | 0.117 |  |  |  |  | 0.0968 | 0.103 |  |  | 0.112 | 0.0792 | 0.0166 | 0.0925 | 0.1 | 0.101 | 
5 | F117K | 0.11 | 0.0832 | 0.182 | 0.103 |  | 0.0952 | 0.0906 |  |  | 0.0974 |  | 0.0964 | 0.113 | 0.0947 |  |  | 0.114 |  | 0.103
6 | Q118S | 0.114 |  | 0.117 | 0.155 |  |  |  |  | 0.0611 | 0.129 |  |  |  | 0.0783 | 0.0797 |  | 0.125 | 0.0761 | 0.0769
7 | T119H | 0.211 | 0.0974 |  |  |  |  |  |  |  | 0.165 |  |  |  | 0.0896 |  |  |  | 0.127 | 0.101
8 | S121D | 0.111 | 0.0904 | 0.101 | 0.11 | 0.0637 | 0.0999 |  | 0.102 | 0.0886 |  |  | 0.0978 | 0.099 | 0.0806 |  | 0.0765 | 0.148 | 0.0989 | 
9 | S121V | 0.132 | 0.124 | 0.108 | 0.108 | 0.125 |  |  | 0.111 | 0.0942 | 0.0975 | 0.0958 | 0.118 |  | 0.103 | 0.0895 | 0.0988 |  | 0.1 | 0.118
10 | S123V | 0.119 | 0.111 |  |  |  |  | 0.137 | 0.119 | 0.055 | 0.0697 | 0.117 | 0.107 | 0.0882 | 0.115 |  | 0.0685 |  |  | 0.131
11 | S124D | 0.116 | 0.101 | 0.112 |  |  | 0.07 |  | 0.0489 |  |  |  | 0.0955 | 0.0958 |  | 0.0799 | 0.0969 | 0.115 | 0.102 | 
12 | S124E | 0.0959 | 0.109 | 0.107 | 0.106 |  |  |  |  |  | 0.111 |  |  | 0.0632 |  |  |  | 0.0955 |  | 0.0792
13 | S124Q | 0.159 | 0.103 | 0.13 | 0.129 | 0.0983 |  |  |  |  | 0.121 | 0.165 | 0.0994 | 0.114 | 0.119 | 0.0894 | 0.149 | 0.118 | 0.0885 | 0.13
14 | M125K | 0.127 | 0.0989 |  | 0.129 |  | 0.0883 | 0.0553 | 0.0947 | 0.106 |  | 0.121 |  | 0.0864 |  | 0.0944 | 0.124 | 0.0895 | 0.129 | 

Reference: the supplement of paper PMC12217912
